Results: paper PMC4336329 (PLoS ONE, 2015)
The campaign covered roughly 310,000 compounds. About 14,000 (4.5%) showed an effect of 50% or more. Effects have a minus sign here. The list shows a part of the results.

target: human ether-à-go-go-related gene (hERG) potassium channel (human, UniProt Q12809); test: primary screen, population patch clamp on CHO cells stably expressing hERG
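Further: peak tail current of the secondary pulse compared with the same well before compound.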

Sequence of human ether-à-go-go-related gene (hERG) potassium channel (Q12809 whole entry, looked up): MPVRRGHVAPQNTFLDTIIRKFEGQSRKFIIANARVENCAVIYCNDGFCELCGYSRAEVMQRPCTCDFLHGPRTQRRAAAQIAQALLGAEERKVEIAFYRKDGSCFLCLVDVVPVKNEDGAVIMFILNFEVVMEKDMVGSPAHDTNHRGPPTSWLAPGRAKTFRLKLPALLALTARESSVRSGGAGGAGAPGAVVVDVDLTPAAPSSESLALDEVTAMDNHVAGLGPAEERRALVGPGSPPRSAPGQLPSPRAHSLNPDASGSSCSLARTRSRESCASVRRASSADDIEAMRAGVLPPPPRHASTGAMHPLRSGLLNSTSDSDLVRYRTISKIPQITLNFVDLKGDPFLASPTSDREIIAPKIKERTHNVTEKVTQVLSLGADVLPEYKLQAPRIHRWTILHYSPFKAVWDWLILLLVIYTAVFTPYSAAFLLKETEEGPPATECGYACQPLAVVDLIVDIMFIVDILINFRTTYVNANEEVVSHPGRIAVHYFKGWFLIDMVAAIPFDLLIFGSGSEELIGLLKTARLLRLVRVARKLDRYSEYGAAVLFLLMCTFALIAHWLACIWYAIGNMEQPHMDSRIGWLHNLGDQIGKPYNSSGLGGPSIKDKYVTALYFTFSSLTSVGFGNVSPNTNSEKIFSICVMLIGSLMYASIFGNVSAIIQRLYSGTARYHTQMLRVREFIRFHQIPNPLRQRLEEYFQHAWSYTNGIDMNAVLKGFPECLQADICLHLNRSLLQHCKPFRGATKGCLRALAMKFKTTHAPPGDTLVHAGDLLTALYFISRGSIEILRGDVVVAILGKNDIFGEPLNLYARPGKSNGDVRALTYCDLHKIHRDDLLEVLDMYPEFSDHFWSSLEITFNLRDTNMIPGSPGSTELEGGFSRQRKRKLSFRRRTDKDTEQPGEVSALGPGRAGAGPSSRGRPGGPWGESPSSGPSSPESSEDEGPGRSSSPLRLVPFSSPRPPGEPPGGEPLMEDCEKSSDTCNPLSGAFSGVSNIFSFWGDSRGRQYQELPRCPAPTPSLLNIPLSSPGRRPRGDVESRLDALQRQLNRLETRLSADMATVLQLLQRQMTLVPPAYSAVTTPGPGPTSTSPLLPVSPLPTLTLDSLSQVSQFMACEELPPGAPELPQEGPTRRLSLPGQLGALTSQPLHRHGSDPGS

Row | SMILES | hERG current change (%, negative = inhibition) at 10uM
1 | O=C1C(C=NCC2CCCO2)=C(O)c2ccccc21 (stereo not drawn) | -2.05%
2 | COc1ccc([N+](=O)[O-])cc1NC(=O)C1C2C=CC(C2)C1C(=O)O (stereo not drawn) | 6.42%
3 | COC(=O)Nc1nncs1 | 6.94%
4 | Cn1c(CSCc2ccc(F)cc2)nnc1SCC(=O)Nc1nccs1 | 1.66%
5 | C=CCOc1ccc(C(=O)/C=C2/C(=O)Nc3ccccc32)cc1 | -8.69%
6 | O=C(NC1CCCC1)c1ccc2nc[nH]c2c1 | 7.17%
7 | COc1ccc(S(=O)(=O)N2CCCCC2)cc1NC(=O)C1CC(=O)N(c2ccc3c(c2)OCCO3)C1 (stereo not drawn) | -20.4%
8 | C/C(=C\C(=O)c1cccnc1)Nc1ccc(C(=O)O)cc1 | 16.3%
9 | CC(=O)N1N=C(c2ccccc2)CC1c1ccccc1[N+](=O)[O-] (stereo not drawn) | 2.95%
10 | CCCc1nc(SC2CCCC2)c2c(=O)n(C)c(=O)n(C)c2n1 | 1.5%
11 | Cn1c(-c2cccc(Br)c2)n[nH]c1=O | 12.5%
12 | Cc1ccc(C)c(NC(=O)c2cnccn2)c1 | 14.7%
13 | COc1ccc(N2C(=O)NC(=O)C2=O)cc1 | 8.45%
14 | CC1(C)CC(=O)C(C=NCCCN2CCCC2=O)=C(O)C1 | 7.94%
15 | COc1cc(C(=O)NCc2nnc(SCC(=O)Nc3nc4ccc(C)cc4s3)o2)cc(OC)c1OC | 19.5%
16 | CC1(C(=O)NC2CCCCCCC2)CC1(Cl)Cl (stereo not drawn) | -3.53%
17 | CCN(C(=O)COC(=O)c1cccs1)c1c(N)n(Cc2ccccc2)c(=O)[nH]c1=O | 18.3%
18 | O=C(Nc1ccc(Cl)cc1)Nc1ccccn1 | 8.38%
19 | CCCN1CCC(NC(=O)Nc2ccc(Br)cc2)CC1 | 19.7%

Row | SMILES | hERG current change (%, negative = inhibition) at 10uM
20 | O=C(NCc1ccncc1)C(=O)NCC(c1ccccc1)c1ccccc1 | -28.8%
21 | CCCCCOc1ccc(C(=O)N(Cc2ccco2)C2CCS(=O)(=O)C2)cc1 (stereo not drawn) | -22.7%
22 | COc1cccc(COC(=O)c2ccc(S(=O)(=O)N3CCC(C)CC3)cc2)c1OC | 4.23%
23 | COc1ccc(C(CC(=O)c2ccccc2)CC(=O)c2ccccc2)cc1 | 5.77%
24 | Cc1cccc(NC(=O)COC(=O)CCCC2=NS(=O)(=O)c3ccccc3N2)c1 | 10.7%
25 | Brc1ccc(-c2noc3c2-c2nc(-c4ccccc4)sc2CC3)cc1 | 8.09%
26 | CCC(CC)NCc1ccc2c(c1)c1ccccc1n2CC.O=C(O)C(=O)O | -28.5%
27 | COC(OC)c1ccc(C#N)c(=O)[nH]1 | 30.7%
28 | COCCCNC(=S)Nc1ccc(S(=O)(=O)Nc2cc(OC)nc(OC)n2)cc1 | -30.9%
29 | Cc1ccc(Nc2nc(CSc3nnc(-c4ccccc4C)n3C)cs2)cc1 | -31.3%
30 | CCCCCn1c(=O)c(C(=O)OCC)c(Cl)c2ccccc21 | -73.8%
31 | N[C@@H](Cc1ccc(O)c(I)c1)C(=O)O | 17.6%
32 | CCCCNC(=O)C1Cc2cc(S(=O)(=O)N3CCCCC3)ccc2N1C(C)=O (stereo not drawn) | 17.4%
33 | COc1ccc(N(Cc2cc3ccccc3[nH]c2=O)S(=O)(=O)c2ccc(C)cc2)cc1 | 3.72%
34 | CN(CC(=O)Nc1ccc(F)cc1)C(=O)CNC(=O)C1CCCCC1 | -2.07%
35 | Cc1nc2ccc(NC(=O)c3ccc(Cl)c(S(=O)(=O)N(C)c4ccccc4)c3)cc2s1 | 10.3%
36 | COCC(C)n1c(COc2ccccc2F)nnc1SCc1c(C)noc1C (stereo not drawn) | -1.85%
37 | c1ccc(-c2nnc3sc(CN4CCc5ccccc54)cn23)cc1 | -8.03%
38 | O=C(c1cccs1)n1cc(C(=S)N2CCOCC2)c2ccccc21 | -4.37%

Row | SMILES | hERG current change (%, negative = inhibition) at 10uM
39 | CCN(CC)CC1CCCCN1CC(=O)N1c2ccccc2C(=O)Nc2cccnc21 (stereo not drawn) | 15.9%
40 | COc1ccc(C(C)=O)cc1CSc1nnc(-c2ccccc2O)n1-c1ccccc1 | -36.5%
41 | O=C1c2ccccc2C(=O)N1CCCCN(C(=O)c1cc([N+](=O)[O-])ccc1Cl)c1ccc(Cl)cc1 | 0.537%
42 | CCCn1c(SCC(=O)N(C2CCCCC2)C2CCS(=O)(=O)C2)n[nH]c1=O (stereo not drawn) | -4.16%
43 | O=C(COC(=O)c1ccccc1NC(=O)c1ccco1)Nc1ncc(Cl)cc1Cl | -32.5%
44 | COc1ccc(NC(=O)c2cccnc2Nc2ccccc2)cc1 | 1.93%
45 | CCOc1ccc(NC(=NCc2ccc3c(c2)OCO3)SC2CC(=O)N(c3ccc(OCC)cc3)C2=O)cc1 (stereo not drawn) | -1.29%
46 | CCCCCc1ccc(S(=O)(=O)Nc2cc(C)ccn2)cc1 | 8.41%
47 | O=C(O)/C=C/c1cn(-c2ccccc2)nc1-c1cc2ccccc2o1 | 30.4%
48 | O=C(CC1SC(N2CCCC2)=NC1=O)Nc1ccc(C(=O)NCCc2ccc(F)cc2)cc1 (stereo not drawn) | -1.38%
49 | Nc1ccc(N2CCN(Cc3ccccc3Cl)CC2)c(Cl)c1 | -11.4%
50 | O=C(N/N=C/c1ccc2c(c1)OCO2)C(O)c1ccccc1 (stereo not drawn) | 3.3%
51 | CCOc1nc(SC(C(C)=O)C(=O)Nc2ccccc2)nc(N(C)C)n1 (stereo not drawn) | -14.4%
52 | Cc1ccccc1OCC(O)CN1CCN(c2ccc(Cl)cc2)CC1 (stereo not drawn) | -66.3%
53 | COc1ccc(C(=O)C2CCCN(Cc3cnc(N4CCCC4)s3)C2)cc1OC (stereo not drawn) | -44%
54 | Cc1cc(OCC(=O)N(Cc2ccccc2)C2CCS(=O)(=O)C2)ccc1Cl (stereo not drawn) | -14.1%
55 | CC(=O)c1c(COC(=O)c2cccc(C)c2)nc2ccccc2[n+]1[O-] | -1.95%
56 | CSc1ccc(NC(=O)N2CC=C(n3c(=O)[nH]c4ccccc43)CC2)cc1 | -14.3%
57 | CC(C#N)(NC(=O)COC(=O)c1ccccc1NCCO)C1CC1 (stereo not drawn) | 5.49%
